# Paper PMC12820563
# The other results are listed elsewhere or left out. The list includes weakly bound sequences.
# Target: T1, MBP-FoxP3dN (UniProt Q99JB6)
# T1 sequence: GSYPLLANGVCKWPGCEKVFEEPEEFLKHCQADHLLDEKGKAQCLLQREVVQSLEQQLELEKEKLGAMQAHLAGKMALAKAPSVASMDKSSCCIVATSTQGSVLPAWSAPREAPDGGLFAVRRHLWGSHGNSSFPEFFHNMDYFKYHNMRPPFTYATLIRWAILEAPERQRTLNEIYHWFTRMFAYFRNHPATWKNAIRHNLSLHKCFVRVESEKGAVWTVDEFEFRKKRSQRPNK
# Assay: PD-seq (MBP pull-down with sequencing)
# Settings: 20 mM Tris-HCl pH 7.5, 100 mM NaCl, 1.5 mM MgCl2, 0.4 uM protein, 0.1 uM dsDNA library, 30 min, room temperature, amylose pull-down; high values mean tight binding; double strand, one strand shown
row,Sequence,binding signal (RPM ratio (pull-down/input))
1,GATGATTGTTCTCCCAGCTGATGAATTGGATATGTCGAGTAAACAAATTTTCCTAATCTTTCTGTTCAAGCGCCATCTAC,0.942
2,GATGATTGTTCTCCCAGCTGATGAATTCGAAGCTTCGAGTAAACAAATTTTCCTAATCTTTCTGTTCAAGCGCCATCTAC,0.282
3,GATGATTGTTCTCCCAGCTGATGAATTGGACCCGTCGAGTAAACAAATTTTCCTAATCTTTCTGTTCAAGCGCCATCTAC,0.245
4,GATGATTGTTCTCCCAGCTGATGAATTAGATCCTTCGAGTAAACAAATTTTCCTAATCTTTCTGTTCAAGCGCCATCTAC,0.283
5,GATGATTGTTCTCCCAGCTGATGAATTAGAGACCTCGAGTAAACAAATTTTCCTAATCTTTCTGTTCAAGCGCCATCTAC,0.273
6,GATGATTGTTCTCCCAGCTGATGAATTCCATGGCTCGAGTAAACAAATTTTCCTAATCTTTCTGTTCAAGCGCCATCTAC,0.31
7,GATGATTGTTCTCCCAGCTGATGAATTTGAATACTCGAGTAAACAAATTTTCCTAATCTTTCTGTTCAAGCGCCATCTAC,1.68
8,GATGATTGTTCTCCCAGCTGATGAATTGGGGTAATCGAGTAAACAAATTTTCCTAATCTTTCTGTTCAAGCGCCATCTAC,0.52
9,GATGATTGTTCTCCCAGCTGATGAATTAGGGCCGTCGAGTAAACAAATTTTCCTAATCTTTCTGTTCAAGCGCCATCTAC,0.359
10,GATGATTGTTCTCCCAGCTGATGAATTCCCATGCTCGAGTAAACAAATTTTCCTAATCTTTCTGTTCAAGCGCCATCTAC,0.399
11,GATGATTGTTCTCCCAGCTGATGAATTCCAGGGATCGAGTAAACAAATTTTCCTAATCTTTCTGTTCAAGCGCCATCTAC,0.248
12,GATGATTGTTCTCCCAGCTGATGAATTAGCGGACTCGAGTAAACAAATTTTCCTAATCTTTCTGTTCAAGCGCCATCTAC,0.294
13,GATGATTGTTCTCCCAGCTGATGAATTGTCAGTTTCGAGTAAACAAATTTTCCTAATCTTTCTGTTCAAGCGCCATCTAC,0.465
14,GATGATTGTTCTCCCAGCTGATGAATTCAACGCCTCGAGTAAACAAATTTTCCTAATCTTTCTGTTCAAGCGCCATCTAC,0.564
15,GATGATTGTTCTCCCAGCTGATGAATTTAGAGCTTCGAGTAAACAAATTTTCCTAATCTTTCTGTTCAAGCGCCATCTAC,0.398
16,GATGATTGTTCTCCCAGCTGATGAATTCCCCAGCTCGAGTAAACAAATTTTCCTAATCTTTCTGTTCAAGCGCCATCTAC,0.186
17,GATGATTGTTCTCCCAGCTGATGAATTGTAGTGATCGAGTAAACAAATTTTCCTAATCTTTCTGTTCAAGCGCCATCTAC,1.2
18,GATGATTGTTCTCCCAGCTGATGAATTGAAGACTTCGAGTAAACAAATTTTCCTAATCTTTCTGTTCAAGCGCCATCTAC,0.355
19,GATGATTGTTCTCCCAGCTGATGAATTTACGTGCTCGAGTAAACAAATTTTCCTAATCTTTCTGTTCAAGCGCCATCTAC,0.609
20,GATGATTGTTCTCCCAGCTGATGAATTTCTAATCTCGAGTAAACAAATTTTCCTAATCTTTCTGTTCAAGCGCCATCTAC,0.288
21,GATGATTGTTCTCCCAGCTGATGAATTTAGAGAGTCGAGTAAACAAATTTTCCTAATCTTTCTGTTCAAGCGCCATCTAC,0.302

row,Sequence,binding signal (RPM ratio (pull-down/input))
1,GATGATTGTTCTCCCAGCTGATGAATTTGCAATATCGAGTAAACAAATTTTCCTAATCTTTCTGTTCAAGCGCCATCTAC,2.6
2,GATGATTGTTCTCCCAGCTGATGAATTAGCTAACTCGAGTAAACAAATTTTCCTAATCTTTCTGTTCAAGCGCCATCTAC,0.316
3,GATGATTGTTCTCCCAGCTGATGAATTGGTGCGGTCGAGTAAACAAATTTTCCTAATCTTTCTGTTCAAGCGCCATCTAC,0.482
4,GATGATTGTTCTCCCAGCTGATGAATTGCACCGTTCGAGTAAACAAATTTTCCTAATCTTTCTGTTCAAGCGCCATCTAC,0.828
5,GATGATTGTTCTCCCAGCTGATGAATTCCCTGGTTCGAGTAAACAAATTTTCCTAATCTTTCTGTTCAAGCGCCATCTAC,0.245
6,GATGATTGTTCTCCCAGCTGATGAATTACGGCGGTCGAGTAAACAAATTTTCCTAATCTTTCTGTTCAAGCGCCATCTAC,0.329
7,GATGATTGTTCTCCCAGCTGATGAATTATAACCTTCGAGTAAACAAATTTTCCTAATCTTTCTGTTCAAGCGCCATCTAC,0.355
8,GATGATTGTTCTCCCAGCTGATGAATTCCCAACGTCGAGTAAACAAATTTTCCTAATCTTTCTGTTCAAGCGCCATCTAC,0.274
9,GATGATTGTTCTCCCAGCTGATGAATTTTGTGCGTCGAGTAAACAAATTTTCCTAATCTTTCTGTTCAAGCGCCATCTAC,1.52
10,GATGATTGTTCTCCCAGCTGATGAATTTCTCGCTTCGAGTAAACAAATTTTCCTAATCTTTCTGTTCAAGCGCCATCTAC,0.34
11,GATGATTGTTCTCCCAGCTGATGAATTGTAACCGTCGAGTAAACAAATTTTCCTAATCTTTCTGTTCAAGCGCCATCTAC,0.518
12,GATGATTGTTCTCCCAGCTGATGAATTGGACTGCTCGAGTAAACAAATTTTCCTAATCTTTCTGTTCAAGCGCCATCTAC,0.308
13,GATGATTGTTCTCCCAGCTGATGAATTATAGTGATCGAGTAAACAAATTTTCCTAATCTTTCTGTTCAAGCGCCATCTAC,0.649
14,GATGATTGTTCTCCCAGCTGATGAATTTCCTAGATCGAGTAAACAAATTTTCCTAATCTTTCTGTTCAAGCGCCATCTAC,0.159
15,GATGATTGTTCTCCCAGCTGATGAATTTTCGCCATCGAGTAAACAAATTTTCCTAATCTTTCTGTTCAAGCGCCATCTAC,2.67
16,GATGATTGTTCTCCCAGCTGATGAATTGACATAGTCGAGTAAACAAATTTTCCTAATCTTTCTGTTCAAGCGCCATCTAC,0.408
17,GATGATTGTTCTCCCAGCTGATGAATTCGTAGACTCGAGTAAACAAATTTTCCTAATCTTTCTGTTCAAGCGCCATCTAC,0.453
18,GATGATTGTTCTCCCAGCTGATGAATTACTGACGTCGAGTAAACAAATTTTCCTAATCTTTCTGTTCAAGCGCCATCTAC,0.346
19,GATGATTGTTCTCCCAGCTGATGAATTATACTATTCGAGTAAACAAATTTTCCTAATCTTTCTGTTCAAGCGCCATCTAC,0.634
20,GATGATTGTTCTCCCAGCTGATGAATTAATACTATCGAGTAAACAAATTTTCCTAATCTTTCTGTTCAAGCGCCATCTAC,0.575
21,GATGATTGTTCTCCCAGCTGATGAATTTCTTGTCTCGAGTAAACAAATTTTCCTAATCTTTCTGTTCAAGCGCCATCTAC,0.743

row,Sequence,binding signal (RPM ratio (pull-down/input))
1,GATGATTGTTCTCCCAGCTGATGAATTGGGTGCCTCGAGTAAACAAATTTTCCTAATCTTTCTGTTCAAGCGCCATCTAC,0.919
2,GATGATTGTTCTCCCAGCTGATGAATTGTGAAATTCGAGTAAACAAATTTTCCTAATCTTTCTGTTCAAGCGCCATCTAC,0.836
3,GATGATTGTTCTCCCAGCTGATGAATTCTTTTGATCGAGTAAACAAATTTTCCTAATCTTTCTGTTCAAGCGCCATCTAC,0.285
4,GATGATTGTTCTCCCAGCTGATGAATTGAGGTTTTCGAGTAAACAAATTTTCCTAATCTTTCTGTTCAAGCGCCATCTAC,0.645
5,GATGATTGTTCTCCCAGCTGATGAATTGCGCGGATCGAGTAAACAAATTTTCCTAATCTTTCTGTTCAAGCGCCATCTAC,0.677
6,GATGATTGTTCTCCCAGCTGATGAATTGAGTACGTCGAGTAAACAAATTTTCCTAATCTTTCTGTTCAAGCGCCATCTAC,0.456
7,GATGATTGTTCTCCCAGCTGATGAATTTTCCGAATCGAGTAAACAAATTTTCCTAATCTTTCTGTTCAAGCGCCATCTAC,0.21
8,GATGATTGTTCTCCCAGCTGATGAATTTTGGTGGTCGAGTAAACAAATTTTCCTAATCTTTCTGTTCAAGCGCCATCTAC,0.588
9,GATGATTGTTCTCCCAGCTGATGAATTATGCATGTCGAGTAAACAAATTTTCCTAATCTTTCTGTTCAAGCGCCATCTAC,6.46
10,GATGATTGTTCTCCCAGCTGATGAATTCTCTTGCTCGAGTAAACAAATTTTCCTAATCTTTCTGTTCAAGCGCCATCTAC,0.273
11,GATGATTGTTCTCCCAGCTGATGAATTGTGCCCTTCGAGTAAACAAATTTTCCTAATCTTTCTGTTCAAGCGCCATCTAC,2.1
12,GATGATTGTTCTCCCAGCTGATGAATTATAGACCTCGAGTAAACAAATTTTCCTAATCTTTCTGTTCAAGCGCCATCTAC,0.324
13,GATGATTGTTCTCCCAGCTGATGAATTGATGGGATCGAGTAAACAAATTTTCCTAATCTTTCTGTTCAAGCGCCATCTAC,0.394
14,GATGATTGTTCTCCCAGCTGATGAATTCGCTAGGTCGAGTAAACAAATTTTCCTAATCTTTCTGTTCAAGCGCCATCTAC,0.421
15,GATGATTGTTCTCCCAGCTGATGAATTCACAGTTTCGAGTAAACAAATTTTCCTAATCTTTCTGTTCAAGCGCCATCTAC,0.407
16,GATGATTGTTCTCCCAGCTGATGAATTAGCGTTATCGAGTAAACAAATTTTCCTAATCTTTCTGTTCAAGCGCCATCTAC,1.41
17,GATGATTGTTCTCCCAGCTGATGAATTGTTCTGCTCGAGTAAACAAATTTTCCTAATCTTTCTGTTCAAGCGCCATCTAC,0.359
18,GATGATTGTTCTCCCAGCTGATGAATTGCACATCTCGAGTAAACAAATTTTCCTAATCTTTCTGTTCAAGCGCCATCTAC,1.4
19,GATGATTGTTCTCCCAGCTGATGAATTCTGAAATTCGAGTAAACAAATTTTCCTAATCTTTCTGTTCAAGCGCCATCTAC,0.528
20,GATGATTGTTCTCCCAGCTGATGAATTGATTCGCTCGAGTAAACAAATTTTCCTAATCTTTCTGTTCAAGCGCCATCTAC,0.331
21,GATGATTGTTCTCCCAGCTGATGAATTAAGTTATTCGAGTAAACAAATTTTCCTAATCTTTCTGTTCAAGCGCCATCTAC,3.65
